Assay results taken from PubChem BioAssay AID1347165 (National Center for Advancing Translational Sciences (NCATS), 2019).
Hit rate of the full screen: of about 220,000 compounds, about 5,700 (2.6%) were called active. This list was built around the results that the source calls inconclusive (neither active nor inactive); the mix of calls is not that of the screen. Calls come from the whole dose curve; as a rule, active = well fitted inhibition curve with a large enough effect; inconclusive = small, poorly fitted or top-dose-only effect; inactive = no such curve, though single readings can be large or run the other way. A potency beside an inconclusive call is a rough fit, not a confirmed value.
Note: nearly all actives have a fitted effect of over 70% in size.
Potency is the fitted concentration of half-maximal effect; tags give direction and shape of the fitted curve.
Throughout, for activity change, negative = inhibition: 0% is about no effect.

What follows are compounds tested against Lysine-specific demethylase 5B (Homo sapiens) (UniProt Q9UGL1) (assay: Primary screen for KDM5B Histone Demethylases FDH-coupled qHTS). Conditions: FDH-coupled NADH fluorescence (FDH is formaldehyde dehydrogenase); activity change, negative = inhibition: at 57.7 µM (top of the series) unless noted.
Chain of UniProt Q9UGL1 (Q9UGL1 whole entry, looked up): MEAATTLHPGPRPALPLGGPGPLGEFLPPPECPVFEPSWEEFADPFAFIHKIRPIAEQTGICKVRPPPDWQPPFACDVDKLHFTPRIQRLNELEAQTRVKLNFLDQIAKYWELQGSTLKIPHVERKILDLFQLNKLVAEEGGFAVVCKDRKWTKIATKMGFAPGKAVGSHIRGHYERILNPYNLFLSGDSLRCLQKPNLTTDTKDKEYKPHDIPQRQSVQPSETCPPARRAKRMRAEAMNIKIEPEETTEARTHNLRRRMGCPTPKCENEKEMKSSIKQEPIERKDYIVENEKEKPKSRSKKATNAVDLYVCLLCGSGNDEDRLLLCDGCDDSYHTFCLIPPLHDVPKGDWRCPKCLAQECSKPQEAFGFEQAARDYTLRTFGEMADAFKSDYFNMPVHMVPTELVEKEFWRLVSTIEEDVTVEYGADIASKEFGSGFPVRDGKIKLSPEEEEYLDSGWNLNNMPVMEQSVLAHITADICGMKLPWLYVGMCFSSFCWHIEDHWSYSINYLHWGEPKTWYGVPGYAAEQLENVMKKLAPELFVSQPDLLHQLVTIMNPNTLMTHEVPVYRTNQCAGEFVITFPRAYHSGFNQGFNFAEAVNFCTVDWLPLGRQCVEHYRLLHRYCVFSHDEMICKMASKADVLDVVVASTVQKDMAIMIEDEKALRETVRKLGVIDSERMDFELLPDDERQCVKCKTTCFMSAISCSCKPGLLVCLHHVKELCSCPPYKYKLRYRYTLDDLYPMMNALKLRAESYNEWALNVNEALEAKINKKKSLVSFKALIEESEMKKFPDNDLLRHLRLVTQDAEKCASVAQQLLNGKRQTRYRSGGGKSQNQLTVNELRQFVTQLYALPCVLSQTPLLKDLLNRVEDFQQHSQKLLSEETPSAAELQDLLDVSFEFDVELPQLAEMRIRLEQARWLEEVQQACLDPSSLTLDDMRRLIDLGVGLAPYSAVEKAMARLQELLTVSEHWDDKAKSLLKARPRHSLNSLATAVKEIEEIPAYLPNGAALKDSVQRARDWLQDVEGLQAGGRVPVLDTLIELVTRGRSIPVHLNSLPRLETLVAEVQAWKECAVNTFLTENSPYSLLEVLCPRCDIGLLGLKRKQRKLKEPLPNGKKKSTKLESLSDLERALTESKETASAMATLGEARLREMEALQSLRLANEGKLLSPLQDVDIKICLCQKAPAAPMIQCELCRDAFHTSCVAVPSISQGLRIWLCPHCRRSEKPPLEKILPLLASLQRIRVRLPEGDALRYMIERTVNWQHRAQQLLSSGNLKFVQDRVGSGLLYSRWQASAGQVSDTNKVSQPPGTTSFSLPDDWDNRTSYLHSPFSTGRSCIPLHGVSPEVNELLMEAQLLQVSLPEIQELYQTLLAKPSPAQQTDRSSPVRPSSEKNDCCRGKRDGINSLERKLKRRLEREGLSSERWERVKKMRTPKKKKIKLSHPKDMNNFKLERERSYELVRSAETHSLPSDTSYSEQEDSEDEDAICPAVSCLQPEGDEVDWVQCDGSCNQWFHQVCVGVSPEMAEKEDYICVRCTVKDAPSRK
Procedure, shortened: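 Compound dilutions met 200 nM (final) KDM5BΔAP for 10 min at room temperature before substrate addition. The substrate mix held 12.5 µM H3K4me3 with cofactors 25 µM α-ketoglutarate and 50 µM Fe²⁺. NADH signal gain over 30 min defined activity.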
With O=C(c1ccsc1)N1CCC(Nc2cccnc2)C1 (stereo unspecified) the Potency was active: 12.6 µM. With CC1=C(C(=O)OC(C)C)C(c2ccc(Cl)cc2)N2C(CC(=O)N3CCCC3)=CSC2=N1 (stereo unspecified) the Potency was inconclusive: 28.2 µM [inhibitor, single point]. In the case of CN(C)c1ncnc2sc3c(c12)CCN(Cc1ccc2cc[nH]c2c1)C3, the Potency was inconclusive: 28.2 µM [inhibitor, partial curve, poor fit]. For CN(C)CCNc1oc(-c2ccccc2F)nc1C#N, the Potency was inconclusive: 1.78 µM [inhibitor, partial curve, poor fit]. For Cc1ccc(CN(Cc2ccco2)C(=O)COc2cccc(C)c2C)o1, the Potency was inconclusive: 2.51 µM [inhibitor, partial curve, poor fit]. With Cc1c(C(=O)N2CCCC2)c(S(=O)(=O)NCCc2ccc(Cl)cc2)c(C)n1C the Potency was “inactive”. For COCCN(CCCc1ccccc1)CC(=O)N(C)C, the Potency was “inactive”. For COc1cccc(Cn2c(SCc3ccc(C(=O)N4CCCCC4)cc3)nc3ccncc32)c1, the Potency was “inactive”. In the case of O=C(Nc1nc2n(n1)C(c1ccccc1)C=C(c1ccc(Cl)cc1)N2)c1ccco1 (stereo unspecified), the Potency was inconclusive: 14.1 µM [inhibitor, partial curve, poor fit]. With Cc1cc(Cl)ccc1NC(=O)CN1C(=O)COc2ccc(S(=O)(=O)Nc3ccccc3)cc21 the Potency was inconclusive: 1 µM [inhibitor, partial curve, poor fit]. With CN(CC(=O)NC(=O)NC1CC1)Cc1cccc(F)c1 the Potency was “inactive”. Cc1ccc2oc(-c3ccc(NC(=O)c4ccccc4F)cc3)nc2c1 was tested, and the Potency was inconclusive: 5.62 µM [inhibitor, full curve, poor fit]. NC1(C(=O)N2CCC(c3nnc(Cn4ccnc4)n3C3CC3)CC2)CC1 was tested, and the Potency was inconclusive: 17.8 µM [inhibitor, single point]. With CC(C)(Oc1nn(Cc2cccc(Cl)c2)c2ccccc12)C(=O)N1CCCC1 the Potency was inconclusive: 39.8 µM [inhibitor, single point]. CC(C)c1ccc(Nc2ccc3cc(S(=O)(=O)N4CCCC4)ccc3n2)cc1 was tested, and the Potency was inconclusive: 28.2 µM [inhibitor, partial curve, poor fit]. With N#Cc1cccc(C(=O)N2CCNc3cnc(Nc4cccc(F)c4)nc3C2)c1 the Potency was “inactive”. For O=C1NCCOCCCN(C(=O)c2ccco2)[C@H]2CCCC[C@@H]12, the Potency was “inactive”. For FC(F)(F)Oc1cccc(CN2CCNc3cc(Nc4cccnc4)ncc3C2)c1, the Potency was inconclusive: 31.6 µM [inhibitor, partial curve, poor fit]. For CCOCCSc1nnc(-c2nn(Cc3ccccc3)c(=O)c3ccccc23)o1, the Potency was “inactive”. With COc1ccc(-c2nc(C3CC(=O)N(c4ccc(C)cc4)C3)no2)c(OC)n1 (stereo unspecified) the Potency was inconclusive: 31.6 µM [inhibitor, single point]. NC(=O)c1cc[nH]c1C1CCCN(S(=O)(=O)c2ccc3c(c2)CCC3)C1 (stereo unspecified) was tested, and the Potency was “inactive”. In the case of Cn1cc(CNC(=O)C[C@@H]2C[C@H]3O[C@H](CNC(=O)NCc4ccccc4)[C@@H](O)[C@H]3O2)cn1, the Potency was “inactive”. For COc1ccc(-c2ccc3c(N)c(C(=O)NCc4ccc(C)cc4)sc3n2)cc1, the Potency was inconclusive: 3.98 µM [inhibitor, partial curve, poor fit]. With Cc1ccc(-c2cc(C(=O)O)c3cc(C)cc(C)c3n2)cc1 the Potency was inconclusive: 22.4 µM [inhibitor, partial curve, poor fit]. Cc1ncsc1CN(Cc1ccccc1)C(=O)CCn1nnnc1CN1CCOCC1 was tested, and the Potency was “inactive”. In the case of COCCNC(=O)N1CCc2c(sc3ncnc(N(C)C)c23)C1, the Potency was inconclusive: 31.6 µM [inhibitor, partial curve, poor fit]. With Cc1ccc(Cl)cc1NC(=O)CCc1c(C)nc2c3cccnc3nn2c1C the Potency was inconclusive: 2.24 µM [inhibitor, full curve, poor fit]. N#C/C(=C/c1ccco1)c1nc2ccccc2[nH]1 was tested, and the Potency was inconclusive: 22.4 µM [inhibitor, single point]. With Oc1ccc(N=Cc2ccc3ccccc3c2)cc1 the Potency was inconclusive: 25.1 µM [inhibitor, partial curve, poor fit]. With Cc1nn2c(c1-c1ccnn1C(C)C)N(CC1CCOCC1)CCC2 the Potency was inconclusive: 35.5 µM [inhibitor, partial curve, poor fit]. With CCC(C)n1c(=N)c(C(=O)NC2CCCCC2)cc2c(=O)n3ccccc3nc21 (stereo unspecified) the Potency was inconclusive: 8.91 µM [inhibitor, partial curve, poor fit]. With Cc1ccc(Cn2cccc(NC(=O)CCC3CCCC3)c2=O)cc1 the Potency was inconclusive: 39.8 µM [inhibitor, single point]. For COc1ccc(C2=Nc3ccc(OC(F)(F)F)cc3NC(c3cccnc3)=N2)cc1, the Potency was inconclusive: 0.708 µM [inhibitor, partial curve, poor fit]. In the case of Cc1ccc(CNC(=O)c2cc3ccc4cccnc4c3[nH]2)cc1, the Potency was inconclusive: 31.6 µM [inhibitor, single point]. In the case of CCN(C(=O)Cn1c(=O)n(Cc2ccccc2)c(=O)c2c1c1cc(OC)ccc1n2C)c1ccccc1, the Potency was inconclusive: 31.6 µM [inhibitor, partial curve, poor fit]. CCc1ccccc1NC(=O)Cn1ccn2nc(-c3ccc(F)cc3)c(CO)c2c1=O was tested, and the Potency was inconclusive: 25.1 µM [inhibitor, single point]. With COCc1ccc2c(c1)c(OC(C)(C)C(=O)Nc1ccccn1)nn2CCC(C)C the Potency was “inactive”. In the case of CCOC(=O)C1C(=O)C=C(c2ccc(C)cc2)CC1c1cccc(Cl)c1 (stereo unspecified), the Potency was “inactive”. For CC1CCN(CC2CCCN(S(=O)(=O)c3ccc(F)cc3)CC2)CC1 (stereo unspecified), the Potency was “inactive”. CCCN1CCN(CCCNC(=O)Cn2nc(C)n3c(cc4c(OC)cccc43)c2=O)CC1 was tested, and the Potency was inconclusive: 10 µM [inhibitor, partial curve, poor fit]. With Cn1cc(CN2CCC(C3CCN(S(C)(=O)=O)CC3)C2)c2ccccc21 (stereo unspecified) the Potency was “inactive”. In the case of Cc1ccc(-c2nc(SCC(=O)N3CCCc4ccccc43)n3[nH]c(=O)cc3n2)cc1, the Potency was inconclusive: 31.6 µM [inhibitor, single point]. COc1cc(NC(=O)CSc2nc(-c3ccc(C(C)C)cc3)no2)cc(OC)c1 was tested, and the activity change, negative = inhibition was inconclusive: -42.8% [inhibitor]. O=C(C1CCC1)N1c2ccccc2CC1c1noc(C2CCOCC2)n1 (stereo unspecified) was tested, and the Potency was inconclusive: 11.2 µM [inhibitor, partial curve]. For Cc1ccc(-c2cc(N3CCC(CNC(=O)c4ccc[nH]c4=O)CC3)n[nH]2)cc1, the Potency was “inactive”. COc1ccc(NC(=O)CSc2cn(CCNC(=O)c3c(F)cccc3F)c3ccccc23)cc1 was tested, and the activity change, negative = inhibition was inconclusive: -41.9% [inhibitor]. O=C(OCC(=O)N(Cc1ccccc1)C1CCS(=O)(=O)C1)c1n[nH]c2ccccc12 (stereo unspecified) was tested, and the Potency was inconclusive: 25.1 µM [inhibitor, partial curve, poor fit]. COCCCn1c(=O)c2sccc2n2c(CCCC(=O)NC3CCC(C)CC3)nnc12 (stereo unspecified) was tested, and the Potency was inconclusive: 7.08 µM [inhibitor, partial curve, poor fit]. In the case of COc1cccc(/C=C/C(=O)c2ccc(-c3ccccc3)cc2)c1, the Potency was “inactive”. For COc1cccc(Nc2cn(C)c(=O)n3cc(COc4ccccc4)nc23)c1, the Potency was inconclusive: 20 µM [inhibitor, partial curve, poor fit]. With CC(C)[C@@H]1CN(C(=O)CCn2ccc(=O)[nH]c2=O)C[C@H]1NS(C)(=O)=O the Potency was inconclusive: 4.47 µM [inhibitor, single point]. With COc1ccc(NC(=O)N2CCOC(c3ccc(Cl)cc3)C2)c(C)c1 (stereo unspecified) the Potency was “inactive”. In the case of CCCn1cc(S(=O)(=O)c2cc(C)ccc2C)c(=O)c2cc(F)c(N3CCN(CC)CC3)cc21, the Potency was inconclusive: 28.2 µM [inhibitor, partial curve, poor fit]. In the case of O=C1N(C2CCCCC2)C[C@H]2CN(Cc3ccc(C(F)(F)F)cc3)CCN12, the Potency was inconclusive: 39.8 µM [inhibitor, partial curve, poor fit]. With COCc1nc(C2CC(N)C2)cc(N(C)CCN2CCCCC2=O)n1 (stereo unspecified) the Potency was inconclusive: 14.1 µM [inhibitor, partial curve]. COc1cc(/C=C/c2nc3ccccc3o2)ccc1OC(C)C was tested, and the Potency was inconclusive: 28.2 µM [inhibitor, single point]. In the case of CCCn1ccc2sc(C)c(C(=O)NC3CCCC3)c2c1=O, the Potency was inconclusive: 14.1 µM [inhibitor, partial curve]. For COc1ccc(-c2nc3cc(C)ccc3cc2CN2CCC[C@H]2C(N)=O)cc1OC, the Potency was inconclusive: 12.6 µM [inhibitor, partial curve, poor fit]. With CN1CCN(Cc2ccc(-c3ccc(C(C)(C)C#N)cc3)nc2)CC1 the Potency was inconclusive: 25.1 µM [inhibitor, single point]. In the case of COc1nccnc1NC1CCN(C(=O)Cc2ccccc2F)CC1, the Potency was active: 35.5 µM. Cc1ccc(C)c(CSc2nnc3[nH]c(=O)cc(-c4ccccc4)n23)c1 was tested, and the Potency was inconclusive: 39.8 µM [inhibitor, single point]. For C=CCNC(=O)c1cnn2cc(C)ccc12, the Potency was active: 39.8 µM. For COc1ccc(CNc2cc3c(cn2)CN(C)CCN3C)cc1OC, the Potency was inconclusive: 31.6 µM [inhibitor, partial curve, poor fit]. With O=C1c2ccccc2NC(c2ccccc2)N1c1ccc(F)c(F)c1 (stereo unspecified) the Potency was inconclusive: 25.1 µM [inhibitor, partial curve, poor fit]. With c1ccc(-c2ccc(CNCC3CCCO3)o2)cc1 (stereo unspecified) the Potency was “inactive”. COc1cc2nc(NC(=O)c3ccc(S(=O)(=O)N4CCc5ccccc54)cc3)sc2cc1OC was tested, and the Potency was inconclusive: 25.1 µM [inhibitor, partial curve, poor fit].
